According to PubChem BioAssay AID463173 (ICCB-Longwood Screening Facility, Harvard Medical School, 2010):
Out of some 52,000 compounds screened, about 1,700 (3.3%) were called active. Rule as the data show it: active = survival mostly below about 52% (no sharp cut-off); inactive = mostly above about 56%. The list shows a part of the results.

What follows are compounds tested on Wild type (assay: growth inhibition of S. aureus wild type versus tarO mutant, primary screen, teichoic acid synthesis inhibitors, RN4220, OD600 (AID 463173)). Details: S. aureus RN4220 wild type/DeltatarO growth, OD600, 18 h, active compounds read low, screened at 18.75 µg/mL (by protocol).
For `CCc1cccc(C)c1NC(=O)CN1CCCN(Cc2ccccc2Cl)S1(=O)=O`, the survival was active: 14%. `CCOc1ccccc1NC(=O)C(CC)n1c(C(=O)OC)cc2occc21` (configuration not stated) was tested, and the survival was active: 0%. With `Cc1csc(N/N=C\CCc2ccccc2)n1` the survival was inactive: 110%. In the case of `COc1cc(C2c3c(-c4ccccc4O)n[nH]c3C(=O)N2Cc2ccco2)ccc1OCC(C)C` (configuration not stated), the survival is reported as inactive: 43%. `O=C(Cn1ncc2ccsc2c1=O)N1CCN(c2ccccc2F)CC1` was tested, and the survival was inactive: 73%. With `CCCCN(CC)CCNC(=O)C1CCCN(S(=O)(=O)c2cccc3nsnc23)C1` (configuration not stated) the survival was inactive: 128%. In the case of `COc1ccc(Nc2oc(/C=C/c3cccc(OC)c3)nc2C#N)cc1`, the survival is reported as inactive: 115%. In the case of `CCCn1c(=NC(=O)c2cc3ccccc3o2)c(C(=O)OCC)cc2c(=O)n3ccccc3nc21`, the survival is reported as inactive: 66%. For `COc1ccc(N(C(=O)/C=C\C(=O)Nc2ccc(C)cc2)C(C(=O)NCc2ccco2)c2ccc(C)cc2)cc1` (configuration not stated), the survival was inactive: 63%. In the case of `Cc1c(C(=O)N2CCCCCC2)c(S(=O)(=O)N(Cc2ccccc2)C(C)(C)C)c(C)n1C`, the survival is reported as inactive: 73%. For `O=S(=O)(c1ccc(-n2cnnn2)cc1)N1CCN(c2cccc(Cl)c2)CC1`, the survival was inactive: 99%. `NC1CCC(c2ccccc2)CC1` (configuration not stated) was tested, and the survival was inactive: 98%. In the case of `O=c1cc(-c2ccccc2)n2c(SCc3c(F)cccc3Cl)nnc2[nH]1`, the survival is reported as inactive: 74%. `Cc1ccc(-n2c(=O)c3cccnc3n2CC(=O)Nc2cc(Cl)ccc2C)cc1` was tested, and the survival was inactive: 124%. `Cc1ccc(C)c(CN2C(=O)c3ccccc3S(=O)c3ccc(C(=O)N4CCN(c5cccc(Cl)c5)CC4)cc32)c1` (configuration not stated) was tested, and the survival was inactive: 140%. `Cc1ccc(NC(=O)Cn2c(=O)n(CCCCC(=O)NCc3ccccc3Cl)c(=O)c3ccccc32)cc1` was tested, and the survival was inactive: 94%. In the case of `COc1ccccc1OCC(=O)NCC(c1ccc(Cl)cc1)N1CCOCC1` (configuration not stated), the survival is reported as inactive: 71%. In the case of `O=C(Nc1ccccc1)c1ccc(S(=O)(=O)N2CCCC2)cc1`, the survival is reported as inactive: 100%. For `Cc1ccc(NC(=O)C(=O)NCc2ccco2)cc1`, the survival was inactive: 83%. For `Cc1ccc(NC(=O)CN(C)S(=O)(=O)c2cnc[nH]2)cc1`, the survival was inactive: 71%. In the case of `N=C(N)N1CCN(CC(O)COc2ccccc2)CC1` (configuration not stated), the survival is reported as inactive: 106%. `CC(C)CC(=O)NC1(C(F)(F)F)C(=O)Nc2c1c(=O)[nH]c(=O)n2-c1ccccc1` (configuration not stated) was tested, and the survival was inactive: 149%. `CCCc1nn2c(=O)cc(COc3ccc(/C=C(\C#N)C(=O)Nc4ccccc4)cc3)nc2s1` was tested, and the survival was inactive: 80%. With `Cc1cc2ncn(S(=O)(=O)c3ccc(S(N)(=O)=O)cc3)c2cc1C` the survival was inactive: 105%. For `COc1ccc(C(CC(=O)NCc2ccccc2Cl)N2Cc3ccccc3C2=O)cc1OC` (configuration not stated), the survival was inactive: 73%. In the case of `Cn1c(-n2cccc2)c(-c2c(-c3ccccc3)[nH]c3c2c(=O)n(C)c(=O)n3C)c(=O)n(C)c1=O`, the survival is reported as inactive: 109%. `CCCCOC(=O)c1ccc(NC(=O)CSc2nc3c(c(=O)[nH]2)CCCC3)cc1` was tested, and the survival was inactive: 83%. `Cc1ccc(-c2nnc(C3CCN(S(=O)(=O)c4ccc(C)c(C)c4)CC3)o2)cc1` was tested, and the survival was inactive: 108%. In the case of `CCOc1ccccc1NC(=O)CN1C(=O)CC(c2ccc(OC)c(OC)c2)Sc2ccccc21` (configuration not stated), the survival is reported as inactive: 81%. With `Cc1ccccc1CN1C(=O)c2ccccc2Sc2ccc(C(=O)NC(C)c3ccccc3)cc21` (configuration not stated) the survival was inactive: 81%. For `COc1ccc(NC(=O)CC2C(=O)N(c3ccc(F)cc3)C(=O)N2Cc2ccco2)cc1` (configuration not stated), the survival was inactive: 90%. For `CCN1CCOC(=O)C1CC(=O)Nc1cc(C)cc(C)c1` (configuration not stated), the survival was inactive: 122%. With `O=C(NCc1ccc(F)cc1)c1cc2c(=O)n3ccccc3nc2s1` the survival was inactive: 155%. For `Cc1ccc(CNC(=O)Cn2c(=O)n(-c3ccc(Cl)cc3)c(=O)c3c(C)c(C)sc32)cc1`, the survival was inactive: 72%. For `COc1ccc(OC)c(/C=C(/C#N)c2nc(-c3ccc(-c4ccccc4)cc3)cs2)c1`, the survival was inactive: 71%. With `O=C(NCc1ccccc1)c1nn(-c2ccccc2)nc1CO` the survival was inactive: 120%. With `Cc1cc(C)cc(NS(=O)(=O)c2ccc3[nH]cc(C(=O)N(C)Cc4ccccc4)c(=O)c3c2)c1` the survival was inactive: 111%. With `Cc1ccc(N2C(=O)CCSC23C(=O)N(Cc2ccccc2)c2ccccc23)cc1F` (configuration not stated) the survival was inactive: 68%. `COC(=O)c1ccccc1NC(=O)c1ccc2c(c1)CCN2S(C)(=O)=O` was tested, and the survival was inactive: 110%. In the case of `COc1cc(Nc2ncc3c(n2)CCN(Cc2cc(Br)cs2)C3)cc(OC)c1`, the survival is reported as inactive: 105%. For `Cc1cc(Nc2ccc(F)cc2)n2c(nc3ccccc32)c1C#N`, the survival was inactive: 68%. With `Cc1ccc(CSc2nc3c([nH]c4ccccc43)c(=O)n2C)cc1` the survival was inactive: 71%. With `Cc1c(-c2nc(-c3ccccc3)no2)nnn1-c1cccc(C(F)(F)F)c1` the survival was inactive: 71%. In the case of `CCCCNc1nc2c(S(=O)(=O)c3ccc(C)c(C)c3)nnn2c2ccsc12`, the survival is reported as inactive: 89%. `N#CCCCSc1nnc(Cc2ccc3c(c2)OCO3)o1` was tested, and the survival was inactive: 107%. With `Cc1nn2c(-c3ccco3)ccnc2c1-c1ccc(F)cc1` the survival was inactive: 75%. `COc1ccccc1CNC(=O)c1ccc2c(c1)nc(C)n2-c1ccccc1OC` was tested, and the survival was inactive: 98%. In the case of `COc1ccc(/C=C(\NC(=O)c2ccccc2)C(N)=O)cc1`, the survival is reported as inactive: 111%. With `COc1ccc(NC(=O)c2cccn2-c2nnc(N3CCCCC3)s2)cc1Cl` the survival was inactive: 69%. `COc1ccccc1NC(=O)CN1CCCN(S(=O)(=O)c2ccc(Br)cc2)CC1` was tested, and the survival was inactive: 59%. With `Cc1nc2ccccn2c(=O)c1NC(=O)c1ccc(C(F)(F)F)cc1` the survival was active: -2%. For `Cc1ccc(NC(=O)Cn2c(=O)n(CCCCC(=O)NCc3ccccc3Cl)c(=O)c3ccccc32)cc1C`, the survival was inactive: 74%. For `CCOc1ccc(NC(=O)Cn2c(C)cc3ccccc3c2=O)cc1`, the survival was inactive: 75%. For `CCOC(=O)c1ccccc1NC(=O)c1sc2ncn(Cc3cccc(F)c3)c(=O)c2c1C`, the survival was inactive: 68%. For `O=C(O)c1ccc(-n2c(/C=C\c3ccc(O)cc3)nc3ccccc3c2=O)cc1`, the survival was inactive: 81%. With `Cc1ccc(C2=Nc3ccccc3N(CC(=O)NCc3ccc(F)cc3)C(=O)C2)cc1C` the survival was inactive: 97%. For `COc1ccc(/C=C(\C#N)c2nc(-c3cc4c(ccc5ccccc54)oc3=O)cs2)cc1O`, the survival was inactive: 79%.
